Reference: PMC4336329 (PLoS ONE, 2015)
Screen size: about 310,000 compounds; about 2,200 (0.71%) showed an effect of 50% or more. Effects have a minus sign here. The list shows a part of the results.

The compounds below were run against human ether-à-go-go-related gene (hERG) potassium channel (human, UniProt Q12809) (assay: primary screen, population patch clamp on CHO cells stably expressing hERG).
Sequence of human ether-à-go-go-related gene (hERG) potassium channel (Q12809 whole entry, looked up): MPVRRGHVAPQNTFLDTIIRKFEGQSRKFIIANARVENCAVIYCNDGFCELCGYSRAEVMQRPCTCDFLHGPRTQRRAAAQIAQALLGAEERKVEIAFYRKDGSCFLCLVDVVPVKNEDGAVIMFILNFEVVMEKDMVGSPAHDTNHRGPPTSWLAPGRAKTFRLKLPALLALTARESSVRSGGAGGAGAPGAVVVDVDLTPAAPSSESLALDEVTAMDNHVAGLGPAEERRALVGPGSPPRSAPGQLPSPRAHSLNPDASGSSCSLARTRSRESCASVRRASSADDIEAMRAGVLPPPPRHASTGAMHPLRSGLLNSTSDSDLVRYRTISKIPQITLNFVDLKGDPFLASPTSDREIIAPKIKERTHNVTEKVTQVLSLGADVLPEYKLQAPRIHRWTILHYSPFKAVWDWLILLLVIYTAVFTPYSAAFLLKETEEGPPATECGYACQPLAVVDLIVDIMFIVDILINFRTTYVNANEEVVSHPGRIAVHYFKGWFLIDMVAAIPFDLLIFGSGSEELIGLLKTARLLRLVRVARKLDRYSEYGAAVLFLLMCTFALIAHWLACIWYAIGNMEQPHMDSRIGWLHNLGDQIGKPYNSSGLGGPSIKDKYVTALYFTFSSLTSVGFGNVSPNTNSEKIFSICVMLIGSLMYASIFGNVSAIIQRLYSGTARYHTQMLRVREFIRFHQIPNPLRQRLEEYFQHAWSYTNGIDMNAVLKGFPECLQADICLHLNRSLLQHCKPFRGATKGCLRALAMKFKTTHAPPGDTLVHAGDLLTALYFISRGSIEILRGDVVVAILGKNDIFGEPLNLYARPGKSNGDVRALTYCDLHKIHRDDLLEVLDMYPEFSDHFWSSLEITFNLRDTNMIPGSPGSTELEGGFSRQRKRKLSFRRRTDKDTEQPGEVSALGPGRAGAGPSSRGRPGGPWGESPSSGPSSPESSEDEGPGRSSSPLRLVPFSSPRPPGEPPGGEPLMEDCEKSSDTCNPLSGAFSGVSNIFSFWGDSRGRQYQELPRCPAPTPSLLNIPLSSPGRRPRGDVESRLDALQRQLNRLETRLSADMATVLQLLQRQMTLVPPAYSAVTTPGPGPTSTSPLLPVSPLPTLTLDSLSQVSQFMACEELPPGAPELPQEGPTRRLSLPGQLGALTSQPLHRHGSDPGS

| SMILES | hERG current change (%, negative = inhibition) at 1uM [%] |
| --- | --- |
| CCC(=O)c1ccc(OCC(=O)Nc2ccc3nc(C)sc3c2)cc1 | 11.2 |
| O=C(Cc1ccc([N+](=O)[O-])cc1)Nc1nnc(C2CC2)s1 | 15 |
| N#C/C(=C(/O)COc1cccc2ccccc12)c1nc2ccccc2[nH]1 | -1.15 |
| Cc1ccc(C(=O)NCC(=O)NCC(=O)OCc2ccc(F)cc2)cc1 | 12.8 |
| CN(CCc1ccccn1)C(=O)Nc1cc(Cl)cc(Cl)c1 | 4.34 |
| COc1cccc(-c2cc(C(=O)NCc3ccco3)c3ccccc3n2)c1 | 11.2 |
| CCc1ccc(OCC(=O)Nc2nnc(C3CCCC3)s2)cc1 | 17.5 |
| CC(C)CCNS(=O)(=O)c1ccc(-c2ccc(S(=O)(=O)NCCC(C)C)cc2)cc1 | 12.3 |
| CCOC(=O)COc1cc(N)c(Cl)cc1Cl | 10.3 |
| Cc1cc(C(=O)CN2C(=O)NC3(CCCCC3C)C2=O)c(C)n1Cc1cccs1 (centres unmarked) | 10.7 |
| COc1cc2c(cc1OC)CN(C(=O)c1ccc3[nH]c(C)c(C)c3c1)CC2 | 8.18 |
| CN(C)S(=O)(=O)N1CCC(Oc2ccc(C(=O)NCCc3cscn3)cc2)CC1 | 10.7 |
| CCCOc1ccc(Br)cc1/C=N/NC(=O)c1cc(OC)c(OC)c(OC)c1 | 10.9 |
| O=C(NNc1ccccc1[N+](=O)[O-])Nc1ccc(F)cc1 | 0.521 |
| Cc1cc(-c2cccs2)c2c(n1)sc1c(=O)[nH]c(=O)[nH]c12 | 8.61 |
| COc1ccc(/C=C/C(=O)NCC(=O)N/N=C(/C)c2ccco2)cc1 | 14.7 |
| CC(C)C(=O)NC(=S)Nc1ccc(S(=O)(=O)Nc2nccs2)cc1 | 16.1 |
| COc1ccc(C(=O)/C=C/C(=O)N(CC(=O)NC2CCCCC2)CC2CCCO2)c(O)c1 (centres unmarked) | 9.64 |
| Cc1cc(S(=O)(=O)NCc2ccc3c(c2)OCO3)ccc1F | 2.68 |
| O=C(CSc1ncn[nH]1)c1ccc(OC(F)F)cc1 | 5.85 |
| Cc1ncc(C(=O)O)c(C(=O)O)c1N | 12.4 |
| Cc1cc(C)n2nc(SC(C)C(=O)N3CCC4(CC3)OCCO4)nc2n1 (centres unmarked) | 9.95 |
| Cn1c(NC(=O)c2ccc(Cl)cc2)c(-c2ccccn2)c(=O)c2ccccc21 | 5.7 |

| SMILES | hERG current change (%, negative = inhibition) at 1uM [%] |
| --- | --- |
| COc1cc(C)c2c(c1C=O)Oc1c(c(C)c(O)c3c1C(O)OC3=O)OC2=O (centres unmarked) | 16.6 |
| CC(=O)c1ccc(NC(=O)c2ccc(NC(=O)c3ccco3)cc2)cc1 | 19.8 |
| COc1ccc(C2c3c(nc[nH]c3=O)Oc3nc[nH]c(=O)c32)cc1 | 9.65 |
| Cc1ccccc1C(=O)Nc1ccnn1C1CCN(C(=O)c2cnsn2)CC1 | -11.2 |
| CCC(C)NC(=S)N1CCN(Cc2ccccc2)CC1 (centres unmarked) | 10.3 |
| FC(F)(F)Sc1ccc(NC(=S)NCc2ccccc2)cc1 | 16.1 |
| CCN(CCNC(=O)CC1Oc2ccccc2NC1=O)c1ccccc1 (centres unmarked) | 12.6 |
| Cn1c(C(=O)N2CCN(c3ccc(Cl)cc3)CC2)cc2c(=O)[nH]c3ccccc3c21 | -56 |
| COc1ccc(CNc2nccs2)cc1 | 13.4 |
| CCN(CC)c1ccc(C=C(c2nnnn2-c2ccc(C)cc2)c2nnnn2-c2ccc(C)cc2)cc1 | 16.5 |
| CC(=O)c1ccc(N=C2SCCCN2C(=O)C2CCCCC2)cc1 | 18.8 |
| Cn1c(CC(=O)Nc2ccc(Cl)c(Cl)c2)nnc1SCC(=O)Nc1nccs1 | -3.4 |
| CCCC(=O)c1ccc(N2CCCC2)c(F)c1 | 12.6 |
| O=C(c1ccc(Cl)c([N+](=O)[O-])c1)N(c1ccccn1)c1ccccn1 | -15.9 |
| N#CCN(C(=O)COC(=O)CCCNC(=O)c1ccc(Cl)cc1)c1ccccc1 | -1.3 |
| Cc1ccc2nc(SCn3nnc4ccccc4c3=O)[nH]c2c1 | 23.6 |
| Clc1ccc(/C=N/Nc2ncnc3nc[nH]c23)cc1 | -8.26 |
| CCCn1c2ccccc2c2cnn(CC(=O)NC3CCCCC3)c(=O)c21 | 10.5 |
| COc1ccc(C(=O)NC(=S)NNC(=O)c2cccnc2)cc1 | 9.61 |
| CCCCn1c(N)c(N(CCOC)C(=O)COC(=O)COc2cccc(C(C)=O)c2)c(=O)[nH]c1=O | 13.1 |
| COC(=O)c1cn(-c2ccccc2)c(C)c1C(=O)OC | 2.71 |
| CC(=O)c1ccc(NC(=O)CN2C(=O)CCC2=O)cc1 | -12.4 |
| COc1ccccc1C(=O)COC(=O)c1cccc(-n2cnnn2)c1 | -4.03 |

| SMILES | hERG current change (%, negative = inhibition) at 1uM [%] |
| --- | --- |
| CCOc1ccc(OCCSc2nc3ccccc3c(=O)[nH]2)cc1 | 16.3 |
| COc1ccccc1-c1nnc(SC)n1C | 14.2 |
| Cc1ccc(CN2CCN(C)CC2)c(C)c1 | 8.12 |
| CSc1nc2cc(C)nn2c(-c2ccc(C(C)(C)C)cc2)c1C#N | 5.78 |
| CCOC(=O)/C(C#N)=C1/C=CN(Cc2ccccc2)C=N1 | -11.9 |
| Cc1cccc(C)c1NC(=O)C(NC=O)c1ccc(N(C)C)cc1 (centres unmarked) | 5.82 |
| CC12c3ccccc3C(c3ccccc31)C1C(=O)N(Cc3cccnc3)C(=O)C12 (centres unmarked) | 7.12 |
| CC(C)(C)C(=O)N1CCn2c1nc1ccccc12 | 12 |
| COc1ccc(S(=O)(=O)N2CCN(CC(=O)NCCc3cccs3)CC2)cc1 | 7.69 |
| COc1cc(/C=C/C(=O)Nc2ccc3nc4n(c(=O)c3c2)CCCC4)cc(OC)c1OC | 1.64 |
| Cl.FC(F)(F)c1cc(-c2ccco2)nc(N2CCN(Cc3ccccc3)CC2)n1 | 4.24 |
| NS(=O)(=O)c1cccc(NC(=O)c2ccccc2NS(=O)(=O)c2ccc(F)cc2)c1 | 5.13 |
| CC1CCCC(NC(=O)Cc2ccc(Br)cc2)C1C (centres unmarked) | 16.9 |
| COC(=O)c1cc(C(=O)Nc2ccc(S(N)(=O)=O)cc2)cc([N+](=O)[O-])c1 | 14.6 |
| C=CCOC(=O)C1=C[C@H](c2coc3ccccc3c2=O)[C@@H](CCCO)[C@H](OCC)O1 | 13.5 |
| Cc1ccc(CSc2nnc3ccc(-c4ccncc4)nn23)cc1 | -3.17 |
| CCc1ccc(CNC(=O)CCn2nc(C)c3c(C)n(-c4ccccc4)nc3c2=O)cc1 | 8.73 |
| O=C(Cc1cccc2ccccc12)Nc1ccc(Br)cc1C(=O)O | 9.56 |
| Cc1ccc(CCC(=O)Nc2nccs2)o1 | 11.1 |
| Cc1c(Cl)c(C(=O)NNC(=S)Nc2ccccc2)nn1C | -8.8 |
| CCN(CC(=O)Nc1ccccc1C(F)(F)F)C(=O)CCc1nc2sc3c(c2c(=O)[nH]1)CCCC3 | 8.67 |
| CCOC(=O)C1(Cc2cccc(OC)c2)CCN(C/C=C/c2ccc(OC)cc2)CC1 | -14.2 |
| Cc1ccccc1CC(=O)Nc1ccc(S(=O)(=O)N2CCOCC2)cc1 | 14.2 |

| SMILES | hERG current change (%, negative = inhibition) at 1uM [%] |
| --- | --- |
| Nc1nc(SCC(=O)OCc2ccccc2)[nH]c(=O)c1NC(=O)c1ccco1 | 0.057 |
| O=C(OCc1nc2ccccc2[nH]1)C12CC3CC(CC(C3)C1)C2 | 6.44 |
| COc1cc(/C=N/NC(=O)c2cc(C3CC3)[nH]n2)ccc1O | -1.46 |
| CCOc1ccccc1C1CC(=O)Nc2cc(OC)c(OC)cc21 (centres unmarked) | 12.7 |
| CCn1c(SCC(=O)N2c3ccccc3CC2C)nnc1-c1ccco1 (centres unmarked) | 4.56 |
| COc1cc(CN2CCN(c3cccc(C)c3C)CC2)cc([N+](=O)[O-])c1O | 9.28 |
| Clc1cccc(-c2nc(-c3ccc(-c4nn[nH]n4)cc3)no2)c1 | 8.94 |
| CCOC(=O)c1sc(NC(=S)NC(=O)c2ccccc2Cl)c(C(=O)OCC)c1C | 7.97 |
| COc1cc(CNC(C)(C)CO)ccc1OCC(=O)NC(C)(C)C | 6.44 |
| CCC(=O)N1CCc2cc(Br)cc(S(=O)(=O)NCCCN(CC)Cc3ccccc3)c21 | 4.43 |
| CC12CC(NC(=O)N1c1cccc(C(=O)Nc3ncn[nH]3)c1)c1ccccc1O2 (centres unmarked) | -5.52 |
| Cc1ccc(C(=O)N2C(CC(=O)Nc3ccc(Cl)cc3)C(=O)NC3CCCCC32)cc1 (centres unmarked) | 4.71 |
| COc1ccc(C(=O)Nc2ccc(C(=O)NCCc3ccc(OC)c(OC)c3)cc2)cc1 | 5.39 |
| Cc1cccc(-n2c(C)nc3ccccc3c2=O)c1C | 5.7 |
| COC(=O)COc1ccc(Cl)cc1C1Nc2ccccc2C(=O)N1c1ccc(OC)cc1 (centres unmarked) | 1.01 |
| O=S(=O)(c1ccccc1)c1nc(-c2cccs2)oc1NCC1CCCO1 (centres unmarked) | 10.8 |
| CCn1c(COc2ccc(Cl)cc2)nnc1SCc1nc2ccccc2[nH]1 | -11.9 |
| CN(C)c1cccc(C(=O)N2CCCC(CCC(=O)NCc3ccccc3F)C2)c1 (centres unmarked) | 12.8 |
| O=C(/C=C/c1ccc(O)c(O)c1)NC(=O)c1ccccc1O | 13.3 |
| NS(=O)(=O)c1ccc(N=Cc2ccc(Br)s2)cc1 | 7.51 |
